The values that follow come from PMC7819943, “Rice protein-binding microarrays: a tool to detect cis-acting elements near promoter regions in rice”.

Some of the results follow.

This assay deals with T1, OsWOX13 (Oryza sativa, UniProt Q5QMM3 1-267).
T1 sequence: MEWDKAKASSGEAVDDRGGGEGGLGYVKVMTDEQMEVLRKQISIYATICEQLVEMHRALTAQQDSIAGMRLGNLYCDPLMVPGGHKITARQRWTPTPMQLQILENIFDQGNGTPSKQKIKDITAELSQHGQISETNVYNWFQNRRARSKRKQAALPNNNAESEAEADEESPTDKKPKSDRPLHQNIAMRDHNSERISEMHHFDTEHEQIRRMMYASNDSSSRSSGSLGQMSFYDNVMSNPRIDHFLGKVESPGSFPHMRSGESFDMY
The experiment in a line: protein-binding microarray (RPBM); PBS, 2% BSA, 51.3 ng/ul salmon testes DNA, 50 uM zinc acetate, 200 nM TF, 25 C, 1 h; high values mean tight binding. The settings on record: protein: recombinant; tags: N-terminal polyhistidine and DsRed monomer fusion (pET32a); label: CyDye5-dUTP incorporated in the synthesized complementary strand; 3' TTTTT single-stranded linker to array surface; dsDNA, one strand shown. Put shortly:
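Using Ni–NTA, transcription factors fused N-terminally to polyhistidine and DsRed were purified after expression in E. coli BL21-CodonPlus. These were incubated at 200 nM with a blocked, double-stranded custom Agilent array for 1 h at 25 °C in a buffer containing 50 µM zinc acetate, and the array was washed. The binding signal is per-feature fluorescence intensity (arbitrary units) on an Axon 4000B scanner.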
Regarding “GGTCTGTCAGCCAACAATCACAGGAATCATTCCTAGCCACCGGAGTCACCTAGTGCAG”, the binding signal is 10300 fluorescence intensity (a.u.).

In the case of “ACAAACTTAAAATTAAATTAAAATTAAAGTGACTTAGGATCGGAGTCACCTAGTGCAG”, the binding signal is 10700 fluorescence intensity (a.u.).

On to “TTGGTTGATTAATACATAAGGTAGTCTTGGTTATATCCGACGGAGTCACCTAGTGCAG”, for which the binding signal was 16600 fluorescence intensity (a.u.).

For “ATTTTGTCTATCATGACATTGATATCGACATCCACATTGACGGAGTCACCTAGTGCAG”, the binding signal is 9630 fluorescence intensity (a.u.).

Consider “ATGAGTGACTAGTATATGCATGTTGATCGATCCTCCGGCGCGGAGTCACCTAGTGCAG”, for which the binding signal is 3240 fluorescence intensity (a.u.).

For the sequence “TTTGTATTAATTGATGCTATATGGGCCAGAACATCAGGCACGGAGTCACCTAGTGCAG”, the binding signal was 37300 fluorescence intensity (a.u.).

As to “GATAAACTTGTGATTTTATATAACTTGAACAACAACGCTACGGAGTCACCTAGTGCAG”, the binding signal is 6970 fluorescence intensity (a.u.).

Turning to “ATCAATCATCGTCCACACATTGAAATGTGGACCTAGTGACCGGAGTCACCTAGTGCAG”, the binding signal is 6220 fluorescence intensity (a.u.).

With “GATATTTAATTACAAGGCAAATATCACTTATTTAAGTTTTCGGAGTCACCTAGTGCAG”, the binding signal is 4510 fluorescence intensity (a.u.).

For the sequence “TATTTTCTGTAATTTTATCCATGTTTTGTGTCTGAGTTTCCGGAGTCACCTAGTGCAG”, the binding signal is 3810 fluorescence intensity (a.u.).

Regarding “GACAGACAGACTATTGTGGAGTACAACCTGATAATCAGACCGGAGTCACCTAGTGCAG”, the binding signal is 3610 fluorescence intensity (a.u.).

For “CCAATCAAACTTTTAATTTTAACGTTAACTAAACACGCCCCGGAGTCACCTAGTGCAG”, the binding signal is 21500 fluorescence intensity (a.u.).

Turning to “GATTAATTTACTAGACGAATCTTTTAAGCCTAATTACTCCCGGAGTCACCTAGTGCAG”, the binding signal was 36100 fluorescence intensity (a.u.).

In the case of “ACTATATTTGATTTAAACTCTTGTTTTCTACTCCTAATACCGGAGTCACCTAGTGCAG”, the binding signal is 7860 fluorescence intensity (a.u.).

Regarding “TCTAATTGGTTACAAACTTTATAGTTTTCATGGGAGGCCGCGGAGTCACCTAGTGCAG”, the binding signal was 40500 fluorescence intensity (a.u.).

Consider “TAATAAATGTCTAATCAGAGCTGTTAGTAGGAAAGAGTAGCGGAGTCACCTAGTGCAG”, for which the binding signal is 6500 fluorescence intensity (a.u.).

As for “GTTAATTGACCCCGCCCGTTCTATCCCATCGTCGCATCGACGGAGTCACCTAGTGCAG”, the binding signal was 30000 fluorescence intensity (a.u.).

In the case of “ATTCCGATTGGCTGTGGTTGGTTTGATTTCCTGTTAAGCACGGAGTCACCTAGTGCAG”, the binding signal was 10300 fluorescence intensity (a.u.).

As to “TTTCTTATTATACAAACACTTGATTAGTCTACGATATTGGCGGAGTCACCTAGTGCAG”, the binding signal was 4180 fluorescence intensity (a.u.).

In the case of “TTTGGTCAATCAAGTCAAACTGCTTCAAATTTAACTAAGTCGGAGTCACCTAGTGCAG”, the binding signal was 12700 fluorescence intensity (a.u.).

“ATATCAAATCAATCGCTTCATGATGCCCCGACCTGTAAAACGGAGTCACCTAGTGCAG”: the binding signal is 4350 fluorescence intensity (a.u.).

Consider “ATCAATTATTCAACTTGATTACATAGAACATGACCATCAACGGAGTCACCTAGTGCAG”, for which the binding signal was 19700 fluorescence intensity (a.u.).

Turning to “CCTAATTGCGCTATGATTTGACAATGTGATGCTATAGTAACGGAGTCACCTAGTGCAG”, the binding signal was 39900 fluorescence intensity (a.u.).

Take “TTCACTAATCAATCAACTTAATTTGCTCTGTCAATGTGCACGGAGTCACCTAGTGCAG”: the binding signal is 61700 fluorescence intensity (a.u.).

Turning to “CTGGCATAACTTTGACAAATTGAATGATATGCAATGGACTCGGAGTCACCTAGTGCAG”, the binding signal was 21300 fluorescence intensity (a.u.).

As to “AATTAATCATGTGCTATTGTACTCCGTTTTCCGTGCTGGACGGAGTCACCTAGTGCAG”, the binding signal is 4130 fluorescence intensity (a.u.).

In the case of “TTTTATCATTATTTCCTATCAATATGGCGTGATATCTTAACGGAGTCACCTAGTGCAG”, the binding signal was 4650 fluorescence intensity (a.u.).

Regarding “ACTCAATCTTATTAACTTAAATTGAACTTGAACAAGAGAACGGAGTCACCTAGTGCAG”, the binding signal was 22000 fluorescence intensity (a.u.).

In the case of “GCAGTGATTGCTATAGGTCGTGGCAGATGCGCCACTGCTCCGGAGTCACCTAGTGCAG”, the binding signal is 5640 fluorescence intensity (a.u.).

Turning to “ACGAGATGATTACGAGTGTGTTAGTCCCGTACTGCAGTATCGGAGTCACCTAGTGCAG”, the binding signal is 25300 fluorescence intensity (a.u.).

Turning to “AGATAATTCCTAAACATGAATACATGATCTTAGGCTATGCCGGAGTCACCTAGTGCAG”, the binding signal is 6650 fluorescence intensity (a.u.).

For the sequence “TATGATTTGTGTTAGTTGACTTCTAATTTCTTGAGAGATACGGAGTCACCTAGTGCAG”, the binding signal was 23000 fluorescence intensity (a.u.).

As to “CATGATGAGCCGTGGACTGCCATTCTCCGGTGAAGCAATGCGGAGTCACCTAGTGCAG”, the binding signal was 3880 fluorescence intensity (a.u.).

With “TAGCTTATTTCTGATGATTGCAATATATTTATTGTATATGCGGAGTCACCTAGTGCAG”, the binding signal was 10600 fluorescence intensity (a.u.).

As for “AATCAATCAACCATCATTCCCCGGTGCTTGGCCATGGACCCGGAGTCACCTAGTGCAG”, the binding signal is 42200 fluorescence intensity (a.u.).

As to “TAAGCCTAATCAATCCATAATTAAAGAATGTTTACTGTAGCGGAGTCACCTAGTGCAG”, the binding signal is 14900 fluorescence intensity (a.u.).

“TGGGGAGTGGGATTGAGACGGGGAAATGAATGAAGGGTTACGGAGTCACCTAGTGCAG”: the binding signal is 7150 fluorescence intensity (a.u.).

Turning to “TAATATAATTTTCAGCTTATAATATAATTATTATAAGCTACGGAGTCACCTAGTGCAG”, the binding signal is 5270 fluorescence intensity (a.u.).

Consider “ATTAATTGAGAAGCACTAACCAAATAAATCTTCATGAAGCCGGAGTCACCTAGTGCAG”, for which the binding signal is 49000 fluorescence intensity (a.u.).

Consider “AGTAGCAAATTTACAAATGTCAATAAATAATTCTCCACTTCGGAGTCACCTAGTGCAG”, for which the binding signal is 3320 fluorescence intensity (a.u.).

Regarding “TAGCTGATTATTACAGATGTTGGAGGATGAATAATTGTGACGGAGTCACCTAGTGCAG”, the binding signal was 13500 fluorescence intensity (a.u.).

For “TTATGTAATTATCATTTATTTTATTGTGCCTTGATTCATCCGGAGTCACCTAGTGCAG”, the binding signal was 18400 fluorescence intensity (a.u.).
